# Reference: PMC12136788
# This is one part of the list.
# B1: 167381320_167381440_1809_CDS_ENSG00000143190_ENST00000367866|human|control|control (ssRNA)
# RNA: GGGAGUUCUACAGUCCGACGAUCAAGGGCAGCAGCUGCUGCUGUUUGCAAACCUGAUGCUGUCACCAUCACCUGGCUGGUCCCAAGAGGGGAGGACAAAGGAGUGGAGGUGGUCUGUGUUGUGCUGGUCUCACUGGCACUGGACAACAGAGGAUUGAGCAUCA
# B2: chr5:145543945:145543946:-_ENSG00000133706_ENST00000545646|hu_hu|motif|central (ssRNA)
# RNA: GGGAGUUCUACAGUCCGACGAUCCUGAAUAGCCAGUGGCGGGAAAUAAUCAAGCCAAUGUUCUGCUUCAGAAAAUUUUACGGUCUCUUCAUCAGACAGGCCAAGGGAUUUCAUAAUGCCCCACUGGUAUUUAGAAGAUCCAGCCAACAGAGGAUUGAGCAUCA
# B3: chr2:42509997:42509998:+_ENSG00000143924_ENST00000318522|hu_mus|hu_hu_hu_mus_True|28_88 (ssRNA)
# RNA: GGGAGUUCUACAGUCCGACGAUCUCGCUGAGUCCUCUCCUCAUAAUUAAAUAGUACUACCACUGAGGCGAUAAAAUAAACUAUCUCCCCUGUGGGAAGCAGGUAUACAUUAGCUCUACAGUCCUUUCCUCGAUAACCGUAUACCAACAGAGGAUUGAGCAUCA
# B4: chr3:145257603:145257604:+_ENSMUSG00000074182_ENSMUST00000098534|mus_hu|FALSE|FALSE (ssRNA)
# RNA: GGGAGUUCUACAGUCCGACGAUCAUCAAUGUAAGGUUUUAGGAUUUCAUUAAUAGUUUUAUCAUCUGGUACUCUUUUUUCUAUGUACUCAGCUUGACUUUGAGGAAACUGGAGCUUCACAUGCCAACAAAACUGUUGUUUUUUCAACAGAGGAUUGAGCAUCA
# B5: 30520229_30521091_787_CDS_ENSG00000126858_ENST00000394692|human|control|control (ssRNA)
# RNA: GGGAGUUCUACAGUCCGACGAUCAUCAUCAUAACCAAAUCGUCGAAGCACAGUCCAAGUAGUUUCGUGUCUCCCUCUCUGGAUAAAAAGUGUGUGUAAAAAGAGAAAACCUUUCAGGGUCAACCCACUGUCAGCCACACCAUCCAACAGAGGAUUGAGCAUCA
# B6: chr11:118639009:118639010:-_ENSG00000110367_ENST00000264018|hu_mus|motif|central (ssRNA)
# RNA: GGGAGUUCUACAGUCCGACGAUCUUCAAGUAAGGGGAUGAGGUAGGCACCGCUUUUGCCUGUUCCAUUUUUUGCUCGGGCGGAGAUAUCCCUACCAGAUAAAGCAAUGGGAAUGCUCUCCUCCUGGAUAGGAGAUGGUUUUUCCAACAGAGGAUUGAGCAUCA
# B7: chr11:87793471:87793472:-_ENSMUSG00000020483_ENSMUST00000020775|mus_mus|mus_mus_mus_hu_False|1_1 (ssRNA)
# RNA: GGGAGUUCUACAGUCCGACGAUCUGGACUUGAAAAUAAAAGAAUAAGCUGGAUCCCCCACCCCCCCACAUUGUCAACCCUACACGAGAGUUUUGAAGGCGACUCAUGAAAAUCAGCAGCUCAAACGGCAAUGACCACCCACCCCAACAGAGGAUUGAGCAUCA
# B8: chr3:183368427:183368428:+_ENSG00000114796_ENST00000454652|hu_hu|FALSE|FALSE (ssRNA)
# RNA: GGGAGUUCUACAGUCCGACGAUCAACCAACAUUUCUCGGCUUUCCCUGUGGUCAUUACAAAACAUAGCUCUGAAGUAGCUGCUACAGGCUGAGAGCACAGCUCUAUGGCAAGGAAAUUCUUUUCCUUCCACACAAAUGAUAACCAACAGAGGAUUGAGCAUCA
# B9: chr11:51804979:51804980:-_ENSMUSG00000020390_ENSMUST00000020657|mus_hu|motif|central (ssRNA)
# RNA: GGGAGUUCUACAGUCCGACGAUCGAUAAAAACCUAACAGUUGGUGGUUUAUUUGGAUAUUCUUCAGAAAAUUCUAUUACGGGUUUAAAAGUACCAUCUUCAAAAGGUGUCCCUUCUGGUCCAAAUAUAACUGCAUUCCACUGCCAACAGAGGAUUGAGCAUCA
# B10: chr2:198351390:198351391:-_ENSG00000144381_ENST00000345042|hu_mus|FALSE|FALSE (ssRNA)
# RNA: GGGAGUUCUACAGUCCGACGAUCUCAUUCCCACCCUCCACAGAAAGGCUGCUUCUGAACUCUCAUGUGGUGACACAGCGCUACAGUCCUGAUGCUCACAGAACAGUAGAGAUGCCUCAGUGAUUUAAGUUGAAAGCAGGACACCAACAGAGGAUUGAGCAUCA
# B11: chr2:172291668:172291669:+_ENSG00000115827_ENST00000375255|hu_hu|FALSE|FALSE (ssRNA)
# RNA: GGGAGUUCUACAGUCCGACGAUCAACACUGCUGACACAGCGCCGAUAAUUGUCAAAAUAUAUUCUUCCUCUCUCAUAGGCUAUAGGUGACCUGGAAUGAGUUGUCCAGACAUUCUUAAAUUUAGUACUUUCCUGGCACACCAGCAACAGAGGAUUGAGCAUCA
# B12: 112350797_112352857_1905_CDS_ENSG00000108055_ENST00000361804|human|control|control (ssRNA)
# RNA: GGGAGUUCUACAGUCCGACGAUCCAGUUUGCUGAUCAUAGGAAUAGCAUCAUUGGUUUCAGGAUAGGCUGUAUCCCUGACAUCUAACUUGUUAAGAGGCAGAAAAGUAACCUCUCCAGGAAGAUUCAUUUUAUUAAACUCCAUCAACAGAGGAUUGAGCAUCA
# B13: 43138715_43159018_96_CDS_ENSG00000136448_ENST00000258960|human|control|control (ssRNA)
# RNA: GGGAGUUCUACAGUCCGACGAUCCAAACCACCCCGGUUGUAGCUGUUGUCCUCCUCAUUCUCGCAAUCGCUGCAGUGCUCAUGGCCGUUCCCGUUCCCUUCCAUCAUCUGCGGCAGCGGAGGUGCCGGCGGCUUCACUGCUGUCAACAGAGGAUUGAGCAUCA
# B14: 48405545_48405665_187_5pUTR_ENSG00000082212_ENST00000321341|human|control|control (ssRNA)
# RNA: GGGAGUUCUACAGUCCGACGAUCCCGCGACAGGUGGUACACCCGGCGGAGAGGCCGCGCCCUGCCGCCCGCCCUGGCGAUGCUCAGCUCCCGCGCCGCCCGGCCCUCCCCUUCUGCGAGCCUCCCGGAGCCGCCGUCAGCUCACAACAGAGGAUUGAGCAUCA
# B15: 32238706_32238826_741_3pUTR_ENSMUSG00000035764_ENSMUST00000042732|mouse|control|control (ssRNA)
# RNA: GGGAGUUCUACAGUCCGACGAUCCACUGAAACCAAUCUUGGUCCUUGCACCAUCAGUGCUCUGAGCGAUGGGGUUCCGAUGUAAUGUAAAACCAUUCUUCUUGAUAUAGACAUUCCUGGAGCAGUCAUUCGUGCUGAAGGCAUCAACAGAGGAUUGAGCAUCA
# B16: chr1:25551555:25551556:-_ENSG00000117614_ENST00000236273|hu_mus|FALSE|FALSE (ssRNA)
# RNA: GGGAGUUCUACAGUCCGACGAUCUAAAACCAUUCUGUCAAUUUCCUCUGAGGAAGGCACGUGCGUCCCAUGGAGAAGACUGUUGGAUGUUGGGAAAAAAUCUUCUCCAUGCUUCUCUCUCUGUCGCUCAUAGCUUUCCAUGUCCAACAGAGGAUUGAGCAUCA
# B17: chr16:57198444:57198445:-_ENSMUSG00000022749_ENSMUST00000023431|mus_mus|FALSE|FALSE (ssRNA)
# RNA: GGGAGUUCUACAGUCCGACGAUCCCUAAAAGAAGCUGGCGUCUUACUACAGUAAUACUGAGCCAAAGAGAACAGGUCUUCUAUGUCUUCCAGAUUCAGGCUGGCCGGGGUACUUUCCAAAAAGCGGAUAACUUCUUCUUUGCUCAACAGAGGAUUGAGCAUCA
# B18: chr10:122565287:122565288:-_ENSMUSG00000020124_ENSMUST00000020334|mus_hu|FALSE|FALSE (ssRNA)
# RNA: GGGAGUUCUACAGUCCGACGAUCAAUUUUGGGGACAACCACUUUGUACUGCAUAGGUUUGGUAAGUGGAUCCAUUCUAACUAAGUAAACUUCCAAGGUGCGUUCUUUUUUCAUGGGCAAUGGAAGUGUCAAGUAACAAAAAGGCAACAGAGGAUUGAGCAUCA
# B19: chr11:90138519:90138520:+_ENSMUSG00000003948_ENSMUST00000004050|mus_mus|FALSE|FALSE (ssRNA)
# RNA: GGGAGUUCUACAGUCCGACGAUCUUGGGUUUUCUUAAAAAGGAAGUUGUAUUACUAUUGCACUGACUUUGACAACCUGACCUACUUAAUUUAGAAAAAAAUCAUCGUAGUUAAAAUCUGUAAAAGAAAAAUACAAAAAUUUCUCAACAGAGGAUUGAGCAUCA
# B20: chr4:107545374:107545375:+_ENSMUSG00000028613_ENSMUST00000106731|mus_mus|FALSE|FALSE (ssRNA)
# RNA: GGGAGUUCUACAGUCCGACGAUCGUUGAUGGAUAGCCACAAAGCAUAAUUUUAUUUACAAAAAAAUCAAGCCCCUCAAACCUAAAAAAGCUCUCAACUCAAACAUCCUCUGUAAAUACUGUAUUCAAAUGAUGAGUGAAGUUUCAACAGAGGAUUGAGCAUCA
# B21: chr2:48026839:48026840:+_ENSG00000116062_ENST00000540021|hu_hu|hu_hu_hu_mus_False|8_108 (ssRNA)
# RNA: GGGAGUUCUACAGUCCGACGAUCAUAGUGUGCCACUAGCGUCCUAAAUCUGGAACAGUGGCGGUCAUCCGAAAACUGGCCGAUGAAAAACUUGCCCAGUGAAGUGUCCACAAAGCAAACACCAUACGCACGAGUAUGACCAGACAACAGAGGAUUGAGCAUCA
# B22: chr7:117217587:117217588:+_ENSMUSG00000061079_ENSMUST00000084727|mus_hu|motif|central (ssRNA)
# RNA: GGGAGUUCUACAGUCCGACGAUCGAUAUAAGCUGUGGUACCAUCUUCCAGCUGAACCGCCUGUAAUGCACUCUGGUCAUAACGGUUACUUUUAGGUAUGGGUACAUGUUGAACAUAGGCCGCAGAACCAUCUUCCAACUGAAUCAACAGAGGAUUGAGCAUCA
# Molecular target: T1, UNK ZnF1-3 (human, UniProt Q9C0B0 31-174)
# T1 sequence: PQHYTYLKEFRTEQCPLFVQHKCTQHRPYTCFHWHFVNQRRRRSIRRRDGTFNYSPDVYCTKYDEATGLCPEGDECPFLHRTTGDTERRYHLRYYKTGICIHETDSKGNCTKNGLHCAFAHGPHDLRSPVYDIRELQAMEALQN
# Assay: nsRBNS (natural sequence RNA bind-n-seq); RBNS binding buffer (assumed for nsRBNS): 25 mM Tris pH 7.5, 150 mM KCl, 3 mM MgCl2, 0.01% Triton X-100, 500 ug/ml BSA, 20 U/ml SUPERase-In, 4 C; UNK is unkempt and MSI1 is Musashi-1; names of the RNAs are library labels; protein concentration not given here; high values mean tight binding
row,Binder,binding signal
1,B1,1.02 enrichment R
2,B2,1.49 enrichment R
3,B3,1.65 enrichment R
4,B4,0.503 enrichment R
5,B5,2.1 enrichment R
6,B6,0.798 enrichment R
7,B7,2.28 enrichment R
8,B8,1.22 enrichment R
9,B9,1.1 enrichment R
10,B10,1.35 enrichment R
11,B11,1.37 enrichment R
12,B12,1.39 enrichment R
13,B13,0.471 enrichment R
14,B14,1.35 enrichment R
15,B15,0.54 enrichment R
16,B16,0.627 enrichment R
17,B17,1.27 enrichment R
18,B18,1.14 enrichment R
19,B19,2.1 enrichment R
20,B20,1.47 enrichment R
21,B21,1.05 enrichment R
22,B22,0.849 enrichment R
